About 50,000 (12%) of roughly 420,000 compounds were called active. This list was built around the results that the source calls inconclusive (neither active nor inactive); the mix of calls is not that of the screen. The call rests on the fitted dose curve; in most records, active means well fitted inhibition curve with a large enough effect; inconclusive means small, poorly fitted or top-dose-only effect; inactive means flat fitted curve, though single readings scatter. No potency is given beside an inconclusive call; the fits are too rough.
Experiment: qHTS for Inhibitors of human tyrosyl-DNA phosphodiesterase 1 (TDP1): qHTS in cells in presence of CPT; further: nearly all actives have a fitted effect of over 55% in size
Conditions: chicken DT40 Tdp1-/-;hTDP1 cells + 20 nM CPT, ATP luminescence, 48 h; activity change, negative = growth inhibition: at 46.2 µM (top of the series)
How it was run: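 Cell growth measured by CellTiter-Glo luminescence after a minimum 48 h, 37 C compound exposure with 20 nM CPT in Tdp1-knockout DT40 cells stably expressing hTDP1, seeded 400/well; qHTS titration format.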
On the % scale 0 is the no-effect control and ±100 the full control effect; potency means the concentration at half of the fitted maximal effect; tags describe the fitted curve by direction and shape.

Row | SMILES | Potency | activity change, negative = growth inhibition
1 | CC(=O)Nc1cccc(Nc2nc(-c3cccs3)nc3ccccc23)c1 | active: 16.4 µM | 
2 | Cc1ccc(C)c(N(CC(=O)NC2CCCCC2)C(=O)CNC(=O)c2ccco2)c1 |  | inactive: 2.97%
3 | CCOc1ccc(-c2nc(CN3CCCC(C(=O)N4CCOCC4)C3)c(C)o2)cc1 (centres undefined) |  | inactive: -21.4%
4 | C=CCOc1ccc(C(c2c(C(=O)O)[nH]c3ccccc23)c2c(C(=O)O)[nH]c3ccccc23)cc1 |  | inactive: 12.3%
5 | CN(C)C(=O)/C(=C\c1cccc(Oc2ccccc2)c1)NC(=O)c1ccccc1 | active: 16.4 µM | 
6 | Cc1ccc(C)c(N2CCN(CCCNC(=O)Cn3cc4c(n3)CCC(C)C4)CC2)c1 (centres undefined) | active: 16.4 µM | 
7 | CC(NC(=O)Nc1cccc([N+](=O)[O-])c1)c1ccc2c(c1)OCO2 (centres undefined) | inconclusive [inhibitor, single point] | 
8 | Cc1cccc(NC(=O)c2c(NC(=O)c3ccco3)sc3c2CCC(C)C3)c1 (centres undefined) | inconclusive [inhibitor, single point] | 
9 | O=S(=O)(NCC1(N2CCOCC2)CCCCC1)c1ccc(Cl)cc1C(F)(F)F | inconclusive [inhibitor, single point] | 
10 | Cc1cc2c3c(ccc(C)c3n1)N=CN2c1ccccc1 |  | inactive: -28.4%
11 | CCOCCCn1c(=N)c(C(=O)NCc2ccccc2)cc2c(=O)n3ccccc3nc21 |  | inactive: -19.1%
12 | Cc1ccc(S(=O)(=O)N2CCN(c3nc(N(C)c4cc(Cl)ccc4O)nc4ccccc34)CC2)cc1 | inconclusive [inhibitor, single point] | 
13 | Cc1ccc(Nc2nnc(SCc3cc(=O)n4cc(C)ccc4n3)s2)cc1 | inconclusive [inhibitor, single point] | 
14 | CC1(C)C2CCC1(CS(=O)(=O)NCCc1c[nH]c3ccccc13)C(=O)C2 (centres undefined) |  | inactive: -2.02%
15 | CCOc1ccccc1NC(=O)C(OC(=O)c1cnccn1)c1ccccc1 (centres undefined) |  | inactive: -12.7%
16 | O=C(CSc1nnc(-c2cccnc2)n1-c1ccccc1)Nc1ccccn1 | inconclusive [inhibitor, single point] | 
17 | Cc1c2cnn(-c3ccccc3)c(=O)c2c(C)n1C(C)C(=O)NCc1cccc(Br)c1 (centres undefined) | inconclusive [inhibitor, single point] | 
18 | O=C(Nc1ccc2c(c1)OCO2)c1ccc(N2C(=O)c3ccccc3C2=O)cc1 |  | inactive: -4.6%
19 | CCCN(CCC)C(=O)c1nn(C)c2c1CSc1ccccc1-2 | active: 18.4 µM | 
20 | O=C(Nc1ccc(CN2CCOCC2)cc1)c1ccc2ccccc2c1 | inconclusive [inhibitor, single point] | 
21 | C=CCN(C(=O)CNC(=O)c1ccco1)C(C(=O)NC1CCCC1)c1cccs1 (centres undefined) |  | inactive: -20%
22 | O=S(=O)(c1ccc(F)cc1)c1snnc1-c1ccccc1 | active: 4.11 µM | 
23 | CCCCNCCOCCOc1ccccc1-c1ccccc1 | active: 23.1 µM | 
24 | COc1ccc(-n2nc(-c3ccc(C)cc3)c3cnc4cc(F)c(F)cc4c32)cc1 |  | inactive: -2.73%
25 | CCN(C(=O)CC(C)C)c1nnc(Cn2nnc3ccccc32)s1 | inconclusive [inhibitor, partial curve] | 

Row | SMILES | Potency | activity change, negative = growth inhibition
26 | COc1cccc(CNC(=O)c2ccc(CS(=O)(=O)Cc3ccc(C)cc3)o2)c1 |  | inactive: 0.879%
27 | Cc1ccc(-c2csc(NC(=O)c3c(C)noc3C)n2)cc1 | inconclusive [inhibitor, single point] | 
28 | Cc1cc(-c2cc(F)cc3c2OC(CNC(=O)CCn2cncn2)C3)ccc1F (centres undefined) |  | inactive: 13.6% [at 9.04 µM]
29 | O=C(Cn1c(=O)c2cccn2c2ccccc21)Nc1ccc(F)cc1F | inconclusive [inhibitor, single point] | 
30 | CCc1cc(-c2ccc3c(c2)COc2c4ccccc4nn2-3)on1 | inconclusive [inhibitor, single point] | 
31 | Nc1sc(-c2ccccc2)cc1C(=O)N1CCNCC1 | inconclusive [inhibitor, single point] | 
32 | CCS(=O)(=O)Nc1ccc(C(=O)NCCSc2ccccc2)cc1 |  | inactive: -13.8%
33 | CC(C(=O)Nc1ccccc1)n1nnc2sc3c(c2c1=O)CCCC3 (centres undefined) | inconclusive [inhibitor, single point] | 
34 | CCCSc1nc(C)c2cc(C)cc(C)c2n1 |  | inactive: -17.3%
35 | Cc1ccc(NC(=O)CSc2nc3ccccc3n2CC(=O)N(C)C2CCCCC2)cc1C | inconclusive [inhibitor, single point] | 
36 | CCOc1ccc2nc(N3CCCC(C(=O)NCCc4ccc(C)cc4)C3)sc2c1 (centres undefined) | active: 11.6 µM | 
37 | CC1CCN(C(=S)NC(=O)c2cccs2)CC1 | inconclusive [inhibitor, single point] | 
38 | O=C(Cc1ccc(Cl)cc1)Nc1ccc(-c2cc3ccccc3oc2=O)c(Cl)c1 | active: 5.17 µM | 
39 | O=C(NC(Cc1cccc(F)c1)C(=O)O)C1CCCCC1 (centres undefined) |  | inactive: -17%
40 | CCOC(=O)c1cnc2ccc(C)cc2c1Sc1ccccc1C(=O)OC | inconclusive [inhibitor, single point] | 
41 | O=C(NCC1CCCO1)C1CCC(CNS(=O)(=O)c2ccccc2)CC1 (centres undefined) |  | inactive: 5.01%
42 | CCCCn1c(CNC(=O)C23CC4CC(CC(C4)C2)C3)nnc1SCC(=O)Nc1ccc(F)cc1 | inconclusive [inhibitor, single point] | 
43 | CCNC(=O)CSc1nnc(-c2ccccc2Br)n1-c1cccc(C(F)(F)F)c1 | inconclusive [inhibitor, single point] | 
44 | O=C(CN1C(=O)c2cccnc2Oc2ccc(Cl)cc21)NCCCc1ccccc1 | active: 23.1 µM | 
45 | CCCN1C(=O)SC(CC(=O)Nc2cccc3ccccc23)C1=O (centres undefined) | active: 16.4 µM | 
46 | Cc1cccc(Cn2c(=O)n(Cc3ccccc3)c(=O)c3sc4ccccc4c32)c1 |  | inconclusive: -32.2% [inhibitor]
47 | CC(C)c1cccc(C(C)C)c1NC(=S)Nc1cccc(Cl)c1 | inconclusive [inhibitor, single point] | 
48 | Cc1ccc(NC(=O)C2CCCN2S(=O)(=O)c2ccc3nc(-c4ccccc4)[nH]c3c2)cc1C (centres undefined) | inconclusive [inhibitor, single point] | 
49 | O=S(=O)(NCCCN1CCOCC1)c1ccc(F)c(Cl)c1 |  | inactive: -21.1%
50 | Cc1ccc(NC(=S)NCc2cccn2C)cc1 |  | inactive: -19.6%

Row | SMILES | Potency | activity change, negative = growth inhibition
51 | CCOC(=O)c1ccc(-n2ncc(C(=O)OCC)c2N)cc1 | inconclusive [inhibitor, single point] | 
52 | S=C(NCc1ccc(Cl)cc1Cl)Nc1ccccc1 | inconclusive [inhibitor, single point] | 
53 | O=C(CSc1nnc(-c2c[nH]c3ccccc23)n1-c1ccc(F)cc1)NCc1ccco1 | inconclusive [inhibitor, single point] | 
54 | Cc1ccc(C(=O)N/C(=C\c2ccc(-c3ccc(Cl)cc3)o2)C(=O)NCCCN(C)C)cc1 | active: 11.6 µM | 
55 | Cc1ccc(C2(O)CCN(CCCC(=O)c3ccc(F)cc3)CC2)cc1 | inconclusive [inhibitor, single point] | 
56 | Cc1cc(C(=O)NCc2ccccc2)c2c(C)nn(-c3cccc(Cl)c3C)c2n1 | inconclusive [inhibitor, single point] | 
57 | CN(Cc1ccccc1)C(=O)c1cccc(NC(=O)Cc2cccc(NC(=O)C3CCN(C(=O)C4CC4)CC3)c2)c1 | inconclusive [inhibitor, partial curve, poor fit] | 
58 | CCOc1ccc(S(=O)(=O)N2CCCC(C(=O)NCCN3CCOCC3)C2)cc1Cl (centres undefined) | inconclusive [inhibitor, single point] | 
59 | CCCn1nnc(NC(=S)NC(=O)/C=C/c2ccc(Cl)cc2)n1 |  | inactive: -6.65%
60 | O=C(Cc1ccc(-c2ccccc2)cc1)NC(c1ccccc1)c1ccccc1 | inconclusive [inhibitor, single point] | 
61 | COc1ccc(S(=O)(=O)Nc2ccc(N3CCOCC3)cc2)cc1[N+](=O)[O-] |  | inactive: -2.85%
62 | COC(=O)c1[nH]c2ccccc2c1NC(=O)CN1CCN(Cc2ccc3c(c2)OCO3)CC1 | inconclusive [inhibitor, single point] | 
63 | CCOC(=O)C1CCN(C(=O)COC(=O)c2ccc3[nH]c4c(c3c2)CCCC4)CC1 | active: 13 µM | 
64 | CC(=O)Nc1ccc(S(=O)(=O)N/N=C/c2ccc(C)s2)cc1 | inconclusive [inhibitor, partial curve, poor fit] | 
65 | COc1ccccc1NC(=O)C(C)N(C)CC(=O)Nc1cccc2ccccc12 (centres undefined) | inconclusive [inhibitor, single point] | 
66 | N#CN=c1snc(-c2ccccc2)n1-c1ccc(Cl)cc1 | inconclusive [inhibitor, single point] | 
67 | CC(=O)c1cccc(OCc2cc(C(=O)NC(C)Cc3cccnc3)no2)c1 (centres undefined) | active: 16.4 µM | 
68 | CCS(=O)(=O)n1nc(-c2ccc(C)cc2)nc1N |  | inactive: -10.7%
69 | Cc1cc(C(=O)CN2C(=O)NC(c3ccccc3)(c3ccccc3)C2=O)c(C)n1Cc1ccco1 | inconclusive [inhibitor, partial curve, poor fit] | 
70 | Cc1ccc(-n2cnc3cc(C(=O)NCCC4=CCCCC4)ccc32)cc1Cl | active: 18.4 µM | 
71 | CCc1ccccc1N(CC)C(=O)Cn1nc(Cc2ccncc2)c2ccccc2c1=O | inconclusive [inhibitor, single point] | 
72 | Cc1ccc(S(=O)(=O)NC2(C(F)(F)F)NC(=O)N(c3ccccc3F)C2=O)cc1 (centres undefined) |  | inactive: 1.56%
73 | Cc1cccc(NC(=O)COc2ccc3oc4c(c3c2)CCCC4)c1 | active: 16.4 µM | 
74 | CC(C)(C)c1csc(NC(=O)Cc2ccc(S(=O)(=O)N3CCOCC3)s2)n1 | inconclusive [inhibitor, single point] | 

Reference: PubChem BioAssay AID686979 (National Center for Advancing Translational Sciences (NCATS), 2013)
